From the supplement of paper PMC12217912
This is one part of the list. Sequences were assembled here from the parent chain. Inactive controls read about 0.05.

B1: TEV protease; numbered along this chain (parent)
chain: MGESLFKGPRDYNPISSSICHLTNESDGHTTSLYGIGFGPFIITNKHLFRRNNGTLVVQSLHGVFKVKDTTTLQQHLVDGRDMIIIRMPKDFPPFPQKLKFREPQREERICLVTTNFQTKSMSSMVSDTSCTFPSGDGIFWKHWIQTKDGQCGSPLVSTRDGFIVGIHSASNFTNTNNYFTSVPKNFMELLTNQEAQQWVSGWRLNADSVLWGGHKVFMVKPEEPFQPVKEATQL

Variants of: B1
Assay: raw area under fraction-flipped curve 0-4 h after induction (AUC4h, not background-subtracted), DNA-recorder readout of cleavage of the substrate (dimensionless); higher = more cleavage of the substrate by the protease variant
Conditions: temperature: 34 °C; time window: 0-4 h after rhamnose induction
Method: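 In vivo DNA recorder in E. coli TOP10(DE3) ΔrhaA at 34 °C. Each TEVp single-site mutant (parent TEVp 0) is paired with a single-site variant of the 7-mer TEVs (canonical ENLYFQ|S). The substrate sits between flexible linkers in a Bxb1-sfGFP-TEVs-SsrA fusion, so cleavage stabilises Bxb1 and speeds flipping of a recombination array, read by NGS. The value is the raw area under the fraction-flipped curve over 0-4 h after rhamnose induction (AUC4h), with ≥20 reads per time point. It is not background-subtracted; inactive controls average about 0.047.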
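Further: Bxb1 expression induced with 0.2% (w/v) L-rhamnose at OD600 near 0.5, cultures sampled hourly, flipped fraction per protease–substrate barcode pair counted by paired-end Illumina sequencing.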

Row | Variant | area with substrate ENLYAQS | area with substrate ENLYDQS | area with substrate ENLYEQS | area with substrate ENLYGQS | area with substrate ENLYHQS | area with substrate ENLYMQS | area with substrate ENLYNQS | area with substrate ENLYPQS | area with substrate ENLYQQS | area with substrate ENLYRQS | area with substrate ENLYSQS | area with substrate ENLYTQS | area with substrate ENLYVQS | area with substrate ENLYWQS | area with substrate ENLYCQS | area with substrate ENLYIQS | area with substrate ENLYKQS | area with substrate ENLYYQS | area with substrate ENLYLQS
1 | S182K | 0.064 | 0.0587 | 0.0595 | 0.0615 | 0.0502 | 0.0632 | 0.0622 | 0.0636 | 0.0539 | 0.0522 | 0.0586 | 0.0745 | 0.0024 | 0.0729 |  |  |  |  | 
2 | M188W | 0.0797 | 0.0708 | 0.0866 |  | 0.0857 | 0.0778 | 0.0668 | 0.0809 | 0.0403 | 0.0444 | 0.076 | 0.0694 | 0.096 | 0.0494 | 0.0792 | 0.0901 | 0.0645 | 0.0494 | 
3 | D161S | 0.0504 |  | 0.0667 |  |  | 0.0655 | 0.059 |  |  | 0.0571 |  |  |  | 0.067 |  | 0.0976 |  |  | 0.0685
4 | G138V | 0.0914 | 0.0606 |  | 0.0631 | 0.0556 |  |  | 0.0641 | 0.0586 | 0.0653 |  |  | 0.11 |  |  | 0.0968 |  |  | 0.0901
5 | S154C | 0.117 | 0.0751 | 0.0686 | 0.0704 | 0.0683 | 0.0986 |  | 0.109 | 0.0671 | 0.0643 | 0.0775 |  | 0.125 | 0.0769 | 0.0962 | 0.135 | 0.0455 | 0.0647 | 0.0581
6 | S154L | 0.0788 |  | 0.0681 | 0.0628 | 0.0839 | 0.121 | 0.105 | 0.117 | 0.0784 |  | 0.0735 |  | 0.205 | 0.0972 | 0.13 |  | 0.0679 | 0.0774 | 
7 | S154R | 0.0569 | 0.0617 | 0.0623 | 0.0629 | 0.0588 | 0.0646 | 0.0503 | 0.062 | 0.0499 | 0.0325 | 0.0725 | 0.077 | 0.0857 | 0.0416 |  | 0.0771 | 0.0739 | 0.0494 | 0.059
8 | N186P | 0.0715 | 0.0583 | 0.0851 |  | 0.055 |  | 0.0594 | 0.0792 | 0.0633 |  |  |  |  |  |  | 0.0661 | 0.0595 | 0.0484 | 0.0849
9 | T181P | 0.039 | 0.0701 | 0.0478 | 0.0587 | 0.0588 | 0.0599 | 0.062 | 0.0572 | 0.0594 | 0.055 |  | 0.0593 |  | 0.0862 |  | 0.0578 | 0.0526 |  | 
10 | A196K | 0.103 | 0.0709 | 0.0126 | 0.0576 | 0.0617 | 0.101 | 0.0711 | 0.0725 |  | 0.0347 | 0.0752 | 0.0894 | 0.0934 | 0.0899 | 0.0978 | 0.149 | 0.0564 | 0.0648 | 
11 | G136Y | 0.0847 | 0.0484 | 0.0735 |  | 0.0504 |  |  | 0.0636 | 0.065 | 0.067 |  |  | 0.122 |  |  |  | 0.061 |  | 
12 | I167Y | 0.0557 |  | 0.0623 | 0.0629 | 0.0701 |  | 0.06 |  |  | 0.066 |  | 0.066 | 0.0887 |  |  | 0.0688 | 0.0665 |  | 
13 | I167S | 0.0756 | 0.0557 | 0.0534 | 0.0551 | 0.0622 | 0.061 | 0.0463 | 0.0694 | 0.063 |  |  |  | 0.105 | 0.0781 | 0.0952 | 0.0812 | 0.0495 |  | 0.0498
14 | G153P | 0.0505 | 0.0584 | 0.053 | 0.0523 | 0.0386 | 0.0487 | 0.0468 |  | 0.091 |  |  |  | 0.0493 | 0.0531 |  | 0.0351 | 0.0135 |  | 
15 | M125R | 0.0922 | 0.0744 | 0.0736 | 0.0788 | 0.0705 | 0.0748 | 0.0596 | 0.0704 | 0.064 | 0.0551 | 0.0836 | 0.0792 | 0.115 | 0.0866 |  | 0.113 | 0.0258 | 0.0681 | 0.0839
16 | I139W | 0.0572 | 0.0539 | 0.002 | 0.0604 | 0.0601 | 0.0672 | 0.0488 | 0.0676 |  |  | 0.0677 | 0.0676 |  |  |  | 0.0612 | 0.0532 | 0.0563 | 
17 | D137Y | 0.0761 | 0.0626 | 0.0535 | 0.0616 | 0.0651 |  | 0.0721 |  | 0.0565 | 0.0651 |  | 0.0733 |  |  |  |  |  |  | 
18 | M122T | 0.0832 |  |  | 0.0652 |  | 0.092 | 0.0587 |  |  |  | 0.0896 |  | 0.142 | 0.0807 | 0.0783 |  | 0.0056 | 0.0829 | 
19 | M122N | 0.0756 |  | 0.0647 | 0.0547 | 0.0734 |  | 0.0323 |  | 0.053 |  |  | 0.0822 | 0.112 |  |  |  | 0.0571 | 0.0803 | 0.0938
20 | I164M | 0.0595 | 0.0692 | 0.0619 | 0.059 | 0.0623 | 0.0608 | 0.0584 | 0.0639 | 0.0509 | 0.0547 | 0.0845 | 0.0724 | 0.0907 | 0.0666 | 0.0803 | 0.0866 | 0.06 |  | 0.0643
21 | I164N | 0.0529 | 0.0598 | 0.0522 |  | 0.0546 | 0.0641 | 0.0375 | 0.0536 | 0.0523 |  | 0.0438 | 0.0733 | 0.0475 | 0.0606 | 0.0708 |  | 0.0683 |  | 
22 | N175E | 0.0563 | 0.0439 |  | 0.0467 | 0.051 | 0.0732 |  |  | 0.0529 |  | 0.0663 |  | 0.0682 |  |  |  |  | 0.0655 | 
23 | H143D | 0.0593 | 0.0526 | 0.0418 | 0.046 | 0.0645 | 0.0586 | 0.0464 |  | 0.0211 | 0.0548 |  |  | 0.11 | 0.0506 | 0.0575 |  | 0.058 |  | 0.0598
24 | L191M | 0.0697 | 0.0613 | 0.0621 | 0.0615 | 0.0672 | 0.0814 | 0.0663 | 0.0678 |  | 0.0579 | 0.0724 | 0.119 | 0.107 |  | 0.0713 | 0.133 | 0.07 |  | 0.0817
25 | T129C | 0.077 | 0.0684 | 0.0649 | 0.0741 | 0.0652 | 0.0843 | 0.07 |  | 0.0681 | 0.0683 | 0.0571 |  | 0.098 | 0.0458 |  | 0.0918 | 0.0718 |  | 
26 | L156C | 0.0853 | 0.0728 | 0.0572 | 0.0683 | 0.0689 |  |  | 0.0677 | 0.0509 |  | 0.077 |  | 0.114 | 0.104 | 0.101 |  | 0.0726 |  | 0.116
